The supplement of paper PMC9334596
“And” between values parts separate entries of the source, which are not always exact repeats. Equal values may be shown once. The full ranking holds about 5,300 compounds; the median of “PER2::LUC luminescence relative to vehicle control” is about 0.96, and the highest 2% start at about 1.3. This is one part of the list.

System: mPer2Luc MEF
Assay: PER2::LUC luminescence relative to vehicle control (fold of vehicle); higher = higher PER2::LUC reporter signal
Conditions: 10 µM
Procedure, shortened: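 Compounds from commercial libraries were added at 10 μM to 384-well plates seeded 48 h earlier with ~3000 mPer2Luc mouse embryonic fibroblasts per well. The cells were kept in DMEM with 10% FBS at 37 °C and 5% CO2. Luminescence was read with ONE-Glo 24 h and 30 h after treatment, then an alamarBlue viability assay was run. Values are PER2::LUC luminescence relative to vehicle control, as fold change.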

| SMILES | PER2::LUC luminescence (time after treatment 24 h) | PER2::LUC luminescence (time after treatment 30 h) |
| --- | --- | --- |
| CCOP(=S)(OCC)Oc1nc(Cl)c(Cl)cc1Cl | 1.08 | 1.03 |
| COc1ccc(/C=C2\CCCN=C2c2cccnc2)c(OC)c1 | 0.832 | 0.837 |
| CCCN1CCO[C@@H]2c3cc(O)ccc3OC[C@H]21 (racemic) | 1.23 and 0.995 | 0.765 and 0.905 |
| CCCN1CCO[C@@H]2c3cc(O)ccc3OC[C@H]21 | 1.07 and 1.03 and 1.19 | 0.968 and 0.946 and 0.997 |
| Cc1ccc(-n2nccn2)c(C(=O)N2CCN(c3nc4cc(Cl)ccc4o3)CC[C@H]2C)c1 | 0.986 and 0.694 | 0.965 and 0.954 |
| c1ccc2c3c([nH]c2c1)CNCC3 | 0.992 and 0.964 | 1.07 and 1 |
| CN(C(=O)Cc1ccccc1)[C@H](CN1CCCC1)c1ccccc1 | 0.98 | 0.923 |
| CN1CCN(c2cccc3[nH]c(=O)oc23)CC1 | 0.962 | 0.999 |
| CCCCCCCCCCCCCCCC[n+]1ccccc1 | 0.146 and 0.154 | 0.201 and 0.12 |
| C=CCC1(C(C)CCC)C(=O)NC(=S)NC1=O (centres undefined) | 0.974 | 0.97 |
| CC(=O)O[C@@H]1CC[C@@]2(C)[C@@H](CC[C@@H]3[C@@H]2CC[C@]2(C)C(=O)CC[C@@H]32)C1 | 0.99 | 1 |
| COC(=O)c1cc2c(cn1)[nH]c1ccccc12 | 0.974 | 0.935 |
| C[C@@H]1O[C@@H](O[C@H]2C[C@@H](O)[C@]3(CO)[C@H]4[C@H](O)C[C@]5(C)[C@@H]([C@@H]6COC(=O)C6)CC[C@]5(O)[C@@H]4CC[C@]3(O)C2)[C@H](O)[C@H](O)[C@H]1O | 0.939 | 0.777 |
| c1ccc(/N=N/c2ccccc2)cc1 | 1.07 | 1 |
| C[C@@H]1CC[C@]2(NC1)O[C@H]1C[C@H]3[C@@H]4CC=C5C[C@@H](O)CC[C@]5(C)[C@H]4CC[C@]3(C)[C@H]1[C@@H]2C | 0.944 | 1.02 |
| CN1C2CC(=O)CC1C(O)C2 (centres undefined) | 0.978 | 0.972 |
| O=C1C(Cl)=C(Cl)C(=O)C(Cl)=C1Cl | 0.974 | 1.06 |
| O=C1N=c2cc([N+](=O)[O-])c([N+](=O)[O-])cc2=NC1=O | 0.996 | 0.963 |
| Cc1sc2c(c1C)C(c1ccc(Cl)cc1)=N[C@@H](CC(=O)OC(C)(C)C)c1nnc(C)n1-2 | 0.153 | 0.14 |

| SMILES | PER2::LUC luminescence (time after treatment 24 h) | PER2::LUC luminescence (time after treatment 30 h) |
| --- | --- | --- |
| COc1ccc(OC)c(C(O)C(C)N)c1 (centres undefined) | 1.09 | 1.04 |
| Cc1ncc(C[n+]2csc(CCO)c2C)c(=O)[nH]1 | 1.01 | 0.895 |
| CC([C@H](O)c1ccccc1)N(C)C (some centres undefined) | 0.928 | 0.985 |
| C=CCN1C[C@H](C)N([C@@H](c2ccccc2)c2ccc(C(=O)N(CC)CC)cc2)C[C@H]1C | 0.99 | 0.937 |
| CCC(=O)O[C@H]1CC[C@H]2[C@@H]3CCC4=CC(=O)CC[C@]4(C)[C@H]3CC[C@]12C | 0.867 | 0.975 |
| c1ccc2sc(C3(N4CCCCC4)CCCCC3)cc2c1 | 0.863 and 0.801 | 0.807 and 0.814 |
| COc1cc(CC(C)N)c(OC)cc1I (racemic) | 0.894 | 0.844 |
| C[N+]1(C)C2CCC1CC(OC(=O)c1c[nH]c3ccccc13)C2 (centres undefined) | 1.12 | 0.868 |
| N#C/C(=C\c1ccc(O)c(O)c1)C(N)=S | 1.04 | 1.07 |
| CCCC[N+]1(C)[C@@H]2C[C@@H](OC(=O)[C@H](CO)c3ccccc3)C[C@H]1[C@@H]1O[C@@H]12 (single isomer, unassigned; (-)) | 0.876 | 0.756 |
| C(=C\c1ccccc1)/CN1CCN(CCOC(c2ccccc2)c2ccccc2)CC1 | 0.799 | 0.72 |
| COC(N)=O | 1.07 | 1.01 |
| C[C@H]1CC[C@@H]2[C@@H](C)[C@H]3[C@H](C[C@H]4[C@@H]5CC=C6C[C@@H](O[C@@H]7O[C@H](CO)[C@H](O)[C@H](O[C@@H]8O[C@H](CO)[C@@H](O)[C@H](O)[C@H]8O)[C@H]7O[C@H]7O[C@@H](C)[C@H](O)[C@@H](O)[C@H]7O)CC[C@]6(C)[C@H]5CC[C@]34C)N2C1 [Alpha-SOLANINE] | 1.03 | 1.09 |
| COc1cc2c(cc1O)C[C@H]1c3c(cc(O)c(OC)c3-2)CCN1C | 1.05 | 1.05 |
| CN1CC(CNC(=O)OCc2ccccc2)CC2c3cccc4c3c(cn4C)CC21 (centres undefined) | 0.569 | 0.482 |
| CCC1(CC)C(=O)NC(=O)NC1=O | 0.967 | 0.945 |
| O=C1CCO1 | 0.922 | 0.962 |
| OC(c1ccccc1)(c1ccccc1)C1CCNCC1 | 0.643 | 0.77 |
| CC(=O)O[C@@H]1C[C@H]2C(C)(C)C(=O)C=C[C@]2(C)[C@H]2CC[C@]3(C)C(=CC(=O)O[C@H]3c3ccoc3)[C@@]21C | 0.829 | 1.08 |

| SMILES | PER2::LUC luminescence (time after treatment 24 h) | PER2::LUC luminescence (time after treatment 30 h) |
| --- | --- | --- |
| C[C@]12CCC(=O)C=C1CC[C@@H]1[C@@H]2CC[C@]2(C)C(=O)CC[C@@H]12 | 0.802 | 0.789 |
| NC(=O)OCCCc1ccccc1 | 0.842 | 0.985 |
| NC1CCc2cc(O)c(O)cc2C1 (centres undefined) | 1.15 and 1.03 | 0.977 and 0.993 |
| N[C@@H]1C[C@H]1c1ccccc1.N[C@H]1C[C@@H]1c1ccccc1 | 1.14 | 0.804 |
| NC(CP(=O)(O)O)C(=O)O (racemic) | 1.09 and 1.12 | 0.995 and 1.02 |
| CN1C2CCC1CC(O)C2 (centres undefined) | 1.04 | 1.08 |
| C#CC(C)(O)CC (centres undefined) | 1.17 and 0.813 | 0.949 and 0.909 |
| COc1cc(OC)c(OC)cc1C=O | 1.03 and 1.17 | 0.958 and 1.22 |
| C[N+]1(C)CCCC(OC(=O)C(O)(c2ccccc2)c2ccccc2)C1 (centres undefined) | 0.879 | 1.03 |
| O=C(O)[C@@H]1C[C@H]2C[C@@H](CP(=O)(O)O)CC[C@H]2CN1 | 1.03 | 0.966 |
| OCC1C(O)C(O)C2C(O)CCN12 (centres undefined) | 1.1 | 1.08 |
| COc1cc(N)c(Cl)cc1C(=O)NC1CN2CCC1CC2 (centres undefined) | 0.93 | 1.05 |
| C/C(O)=C(\C#N)C(=O)Nc1cc(Br)ccc1Br | 1.15 | 0.986 |
| COc1cc([C@@H]2c3cc4c(cc3[C@@H](O)[C@H]3COC(=O)[C@H]23)OCO4)cc(OC)c1O | 0.517 | 0.433 |
| Cc1ccccc1-n1c(Cn2ncc3c(N)ncnc32)nc2cccc(C)c2c1=O | 0.974 | 0.988 |
| NC(=O)[C@H](Cc1ccccc1)NC(=O)[C@H](Cc1c[nH]c2ccccc12)NC(=O)[C@@H]1CCCN1C(=O)[C@@H](N)Cc1ccc(O)cc1 | 1.02 | 0.941 |
| CCCC(C)(COC(N)=O)COC(=O)NC(C)C (centres undefined) | 0.917 | 1 |
| CCC1(C)CC(=O)NC(=O)C1 | 0.922 | 0.824 |
| COC(C)(C)CCC[C@H](C)C/C=C/C(C)=C/C(=O)OC(C)C | 0.969 | 0.994 |
